Experimental data: publication PMC4336329 (PLoS ONE, 2015)
Hit rate of the full screen: of about 310,000 compounds, about 2,200 (0.71%) showed an effect of 50% or more. The effect is printed as a negative number. The list shows a part of the results. Where a SMILES comes first, the peptide text is derived from it. The star is where a group is joined. Boc = CC(C)(C)OC(=O)*; OBn = c1ccc(CO*)cc1

These molecules were tested against human ether-à-go-go-related gene (hERG) potassium channel (human, UniProt Q12809) (assay: primary screen, population patch clamp on CHO cells stably expressing hERG).
Chain of human ether-à-go-go-related gene (hERG) potassium channel (Q12809 whole entry, looked up): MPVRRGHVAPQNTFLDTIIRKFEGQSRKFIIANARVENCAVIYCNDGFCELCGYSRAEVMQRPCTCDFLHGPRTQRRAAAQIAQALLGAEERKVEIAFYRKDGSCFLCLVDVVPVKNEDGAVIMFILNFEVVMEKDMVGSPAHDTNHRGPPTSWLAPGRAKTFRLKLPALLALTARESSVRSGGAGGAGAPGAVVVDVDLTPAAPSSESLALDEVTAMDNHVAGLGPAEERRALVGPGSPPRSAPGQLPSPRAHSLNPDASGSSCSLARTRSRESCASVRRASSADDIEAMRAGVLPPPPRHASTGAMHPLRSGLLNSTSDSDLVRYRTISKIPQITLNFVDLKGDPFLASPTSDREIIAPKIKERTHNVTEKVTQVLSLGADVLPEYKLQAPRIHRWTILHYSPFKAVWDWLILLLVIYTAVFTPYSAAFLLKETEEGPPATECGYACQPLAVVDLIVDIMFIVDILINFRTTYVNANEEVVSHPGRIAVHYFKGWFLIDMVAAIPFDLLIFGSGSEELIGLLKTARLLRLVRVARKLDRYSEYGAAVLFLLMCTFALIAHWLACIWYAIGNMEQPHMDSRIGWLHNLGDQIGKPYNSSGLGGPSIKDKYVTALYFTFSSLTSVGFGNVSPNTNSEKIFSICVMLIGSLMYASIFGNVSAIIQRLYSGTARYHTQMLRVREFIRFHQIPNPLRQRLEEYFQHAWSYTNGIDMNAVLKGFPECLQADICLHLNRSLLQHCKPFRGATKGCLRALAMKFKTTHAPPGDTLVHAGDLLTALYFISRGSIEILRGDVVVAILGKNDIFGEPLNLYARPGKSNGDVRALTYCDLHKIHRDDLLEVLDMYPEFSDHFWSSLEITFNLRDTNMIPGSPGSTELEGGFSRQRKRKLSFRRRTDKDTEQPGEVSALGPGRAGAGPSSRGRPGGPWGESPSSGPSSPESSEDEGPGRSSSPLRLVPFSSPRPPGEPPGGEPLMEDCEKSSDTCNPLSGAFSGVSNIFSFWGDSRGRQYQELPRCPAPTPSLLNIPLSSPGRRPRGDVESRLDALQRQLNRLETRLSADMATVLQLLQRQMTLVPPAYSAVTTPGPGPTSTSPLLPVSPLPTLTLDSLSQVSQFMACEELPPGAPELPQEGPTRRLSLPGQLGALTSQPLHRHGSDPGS

Row | Structure (SMILES) | hERG current change (%, negative = inhibition) at 1uM
1 | CN(C)CCCNS(=O)(=O)c1ccc(-n2nnc3ccccc32)c([N+](=O)[O-])c1 | 8.96%
2 | COCCCn1c(=S)[nH]c2sc3c(c2c1=O)CCCC3 | 8.96%
3 | CCCc1nnc(SCC(=O)Nc2ccc(NC(C)=O)cc2)n1-n1cccc1 | 1.06%
4 | CCC(=NCC1CCCO1)c1c(O)[nH]c(=O)[nH]c1=O (stereo not drawn) | 1.97%
5 | Cc1nn(C)c(C(=O)NNC(=S)NC2CCCCC2)c1Br | -1.69%
6 | S=c1[nH]nc(CCc2nc3ccccc3[nH]2)n1-c1cccc(Cl)c1 | 19.1%
7 | CC(C)NC(=O)c1cccc(Cn2cc(Cl)cn2)c1 | 7.33%
8 | Cn1cccc1CNCCc1ccccc1F | -0.53%
9 | CCNC(=S)NNc1nc(N2CCOCC2)nc(N2CCOCC2)n1 | 5.88%
10 | Cn1c(=O)c2c(nc(CN3CCN(C(=O)c4ccco4)CC3)n2Cc2ccccc2)n(C)c1=O | -21.6%
11 | CS(=O)(=O)N1CCC(C(=O)NCc2ccccc2)CC1 | 2.53%
12 | CC1(C)Cc2nc3oc4c(=O)n(CC(=O)Nc5ccccc5)cnc4c3cc2CO1 | 9.96%
13 | COc1ccc(NC(=O)CC2Oc3ccc(C)cc3NC2=O)cc1 (stereo not drawn) | 9.01%
14 | COc1ccc(-c2csc(NC(=S)NC(=O)c3ccco3)n2)cc1 | 18.7%
15 | N#CC1=C(N)SC(N)=C(C#N)C1C1CC=CCC1 (stereo not drawn) | 7.58%
16 | Cc1ccc(CN2C(=O)c3ccccc3C2C(=O)NCC2CCCO2)cc1 (stereo not drawn) | -10.5%
17 | CC(C)(C)c1ccc(COC(=O)Nc2ccc(F)cc2)cc1 | 13.6%
18 | Cc1ccc(C)c(S(=O)(=O)NNC(=O)Nc2ccccc2Cl)c1 | 3.62%
19 | CC1CCCCN1C(=O)c1cccc(NC2=C(Cl)C(=O)N(Cc3ccccc3)C2=O)c1 (stereo not drawn) | -0.379%
20 | O=[N+]([O-])c1ccc(S(=O)(=O)c2ccccc2)nc1 | 11.2%
21 | Cc1cccc(Nc2ncnc(N)c2[N+](=O)[O-])n1 | 0.289%
22 | O=C(COc1cccc(NC(=O)c2cccc([N+](=O)[O-])c2)c1)c1ccc(Br)cc1 | 3.63%
23 | Cc1cc(S(=O)(=O)N2CCCC(C)C2)ccc1-n1cnnn1 (stereo not drawn) | 11.9%

Row | Structure (SMILES) | hERG current change (%, negative = inhibition) at 1uM
24 | CC1(C)CC(=O)C(C=NCCN2CCN(C(=O)c3ccc(Br)cc3)CC2)=C(O)C1 | -11.6%
25 | Cc1cc2oc(=O)cc(CNc3ccccc3F)c2cc1O | 15.3%
26 | COc1ccc(CC(=O)OCC(=O)Nc2ccc(C(=O)Nc3ccc(OC)cc3)cc2)cc1 | 10.4%
27 | Brc1ccc(/C=N/Nc2ccc3ccccc3n2)cc1 | 0.981%
28 | CCN(Cc1ccccc1)C(=O)C1CCN(Cc2ccc(SC)cc2)CC1.O=C(O)C(=O)O | -44.5%
29 | Cc1noc2ncnc(Sc3c(Cl)cccc3Cl)c12 | 8.7%
30 | O=C(O)Cn1ccnc1 | 7.71%
31 | CNC(=O)CSCc1c(F)cccc1Cl | 18.6%
32 | CCCc1cc(=O)oc2cc(OCC(=O)Nc3ccc(CN4CCOCC4)cc3)c(Cl)cc12 | 8.6%
33 | CCOC(=O)N1CCN(Cc2nc(N)nc(Nc3ccccc3C)n2)CC1 | -3.18%
34 | O=c1[nH]ncc(N2CCCC2)c1Cl | 11%
35 | Cc1cc(NC(=O)CSc2nnc(CNc3ccc(F)cc3)n2C2CCCCC2)no1 | -11.3%
36 | CC(=O)Nc1ccc(NC(=O)C2CCCN2C(=O)Nc2cccc(F)c2)cc1 (stereo not drawn) | 22.6%
37 | COc1ccc(C(=O)CSc2nnnn2C)c(OC)c1 | 15.3%
38 | Cc1nc(Cl)c(C(=O)NCCc2ccccc2)c(C)c1[N+](=O)[O-] | 17.3%
39 | O=C(NCc1ccccn1)Nc1ccc(F)cc1 | 12.7%
40 | CCc1nnc(NC(=O)C2CCCCN2S(=O)(=O)c2ccccc2)s1 (stereo not drawn) | 6.81%
41 | COc1ccc(/C=C/c2cc(-c3ccc(C)cc3)o[n+]2C)cc1.F[B-](F)(F)F | -76.5%
42 | CCOc1ccc(N2CC(C(=O)NC3=NCCS3)CC2=O)cc1 (stereo not drawn) | 8%
43 | COc1cc(NS(=O)(=O)c2ccc(NC(=S)NC(=O)c3ccc(Br)cc3)cc2)ncn1 | 13.4%
44 | Cc1nnc(SCC(=O)Nc2nc(-c3ccccc3)cs2)n1N | -0.585%
45 | O=C(CSc1nnc(-c2ccncc2)o1)NCc1ccccc1Cl | 12%
46 | O=C1CN(C(=O)/C=C/c2ccccc2F)c2ccccc2N1 | 12.8%

Row | Structure (SMILES) | hERG current change (%, negative = inhibition) at 1uM
47 | N/C(=N\OC(=O)COc1ccc(Br)cc1)c1cccnc1 | 2.12%
48 | Cc1cc(-n2c(C)cc(C(=O)COc3ccc(F)c(F)c3)c2C)no1 | 5.98%
49 | O=C(O)c1cc(NS(=O)(=O)c2ccc(N3CCOCC3)c([N+](=O)[O-])c2)cc(C(=O)O)c1 | 14.2%
50 | Cc1occc1C(=O)NNC(=O)NC12CC3CC(CC(C3)C1)C2 | 10.1%
51 | CCCC(=O)N1c2ccc(-c3csc(N)n3)cc2CC1C (stereo not drawn) | 5.64%
52 | O=C(CNc1cc(S(=O)(=O)N2CCCC2)ccc1OCC(F)(F)F)Nc1ccc(SC(F)F)cc1 | 4.34%
53 | CNC(=S)N(Cc1ccc(OC)cc1)Cc1cc2ccc(C)cc2[nH]c1=O | 19%
54 | CCC(=O)Nc1cc(C(=O)O)ccc1Sc1ccccc1 | 22.1%
55 | O=c1[nH]c2ccc(Cl)cc2c(O)c1Cc1ccccc1 | 15.8%
56 | COc1ccccc1/C=C/C(=O)NC(=S)N(C)C1CCCCC1 | 6.12%
57 | Cc1cccc(C)c1NC(=O)CN(c1ccccn1)S(=O)(=O)c1ccccc1 | 10.5%
58 | CCOc1ccc(C(=O)Nc2cccc(-n3cnnn3)c2)cc1OCC | -11.4%
59 | Cc1ccc(-c2nc(C#N)c(N3CCCCC3)o2)cc1 | 9.81%
60 | CCc1cccc(NC(=O)c2ccc3c(=O)n4c(nc3c2)CCCCC4)c1 | -29.8%
61 | COc1cc(OC)cc(C(=O)N2CCN(c3ccc(N4CCOCC4)nn3)CC2)c1 | 9.83%
62 | Cc1cccc(Nc2cc(C)nc3ccccc23)c1.Cl | -33.5%
63 | CCOC(=O)C1CCN(C(=O)c2ccc3c(=O)n4c(nc3c2)CCCCC4)CC1 | 0.974%
64 | CC1CCCN(S(=O)(=O)CCNC(=O)c2ccc3c(c2)OCO3)C1 (stereo not drawn) | 9.47%
65 | CCOc1ccc(C(C(=O)NC2CCCCC2)N(C(=O)c2ccco2)c2ccc(-n3cnnn3)c(C)c2)cc1 (stereo not drawn) | 3.26%
66 | COc1ccc(CCNc2cc(C)nc3c(-c4ccccc4)cnn23)cc1OC | 13%
67 | CCN(Cc1ccc(OC)c(F)c1)C(=O)CCl | 41.9%
68 | On1c(-c2ccc(Cl)cc2)nc2ccccc21 | 9.87%
69 | Cc1ccc(N=C2S/C(=C\c3cn(CC(=O)O)c4ccccc34)C(=O)N2C)cc1 | 13.9%

Row | Structure (SMILES) | hERG current change (%, negative = inhibition) at 1uM
70 | O=C1NC(c2ccccc2)=CC(c2ccccc2)N1 (stereo not drawn) | 16.9%
71 | Cc1ccc(NC(=O)CSc2nnc(CNC(=O)c3cccs3)o2)c(C)c1 | 3.77%
72 | O=C(COC(=O)COc1ccc2ccccc2c1)NC1CCCc2ccccc21 (stereo not drawn) | 7.86%
73 | CN1c2ccc(C=O)c3c(C=O)ccc(c23)N(C)C1(C)C | -7.62%
74 | O=C(CN(Cc1ccccc1)C(=O)CCC(=O)Nc1nccs1)NCC1CCCO1 (stereo not drawn) | 12.5%
75 | Cc1cc(C(=O)Cn2nnc(-c3ccc(Cl)cc3)n2)c(C)n1CC1CCCO1 (stereo not drawn) | 7.36%
76 | CCCn1c(C2CCCN2c2nc(-c3cccc(Br)c3)cs2)nc2cc(Cl)c(Cl)cc21 (stereo not drawn) | 6.33%
77 | Cc1nnc(C)n1N | 8.16%
78 | Cc1cc(C)cc(N(CC(=O)NC2CCCC2)C(=O)CCC(=O)Nc2cc(C)ccn2)c1 | 13.8%
79 | CCOC(=O)C1CCCN(C(=O)c2cc(Nc3ccc(OC)cc3)nc3ccccc23)C1 (stereo not drawn) | 8.11%
80 | CCOC(=O)c1ccc2c(c1)nc(COc1ccc(OC)cc1)n2CC | -5.92%
81 | Cc1occc1-c1nc(-c2ccccn2)no1 | 11.6%
82 | Cc1nn(-c2cccc(C(=O)O)c2)c(C)c1[N+](=O)[O-] | 12.3%
83 | CCOC(O)[C@H]1N[C@@H](c2ccc(Cl)cc2)[C@@H]([N+](=O)[O-])[C@@H]1c1ccccc1 (stereo partly drawn) | 5.72%
84 | O=[n+]1cc(-c2ccc(Br)cc2)n([O-])c2c1CCC2 | 2.72%
85 | CN1CCN(C(=O)/C(=C/c2ccccc2Cl)NC(=O)c2ccccc2)CC1 | 6.59%
86 | CCNC(=O)Nc1cc(OC)c(OC)cc1C(=O)O | 7.46%
87 | COc1ccc2c(CC(=O)NCc3ccc4c(c3)OCO4)coc2c1 | 8.35%
88 | NC(=O)CC(NC(=O)c1ccccc1)c1ccc(N2CCN(c3ccc(F)cc3)CC2)c([N+](=O)[O-])c1 (stereo not drawn) | 9.92%
89 | Cc1ccc(S(=O)(=O)NN2C(=O)/C(=C\c3ccc(Cl)cc3)SC2=S)cc1 | 10.4%
90 | CC(NC(=O)OC(C)(C)C)C(=O)NC(CCC(=O)OCc1ccccc1)C(N)=O (stereo not drawn) (Boc-Ala-Glu(OBn)-NH2; configuration not given here) | 8.75%
